{"source": "paper PMC12136788", "binders": {"B1": {"name": "chr19:45035288:45035289:+_ENSMUSG00000036097_ENSMUST00000096053|mus_hu|FALSE|FALSE (ssRNA)", "RNA": "GGGAGUUCUACAGUCCGACGAUCAUUCUCCAGGGGAAACAAAGAUCUAAAAUCAAUCCCCAUAUUGAAAAACACAGCUGCUACAUCAGACAAUGAUGGGAUCCAUGGCCAAACUGGUGAGUCACUGAAGGUAUCAUUUCUAAUCAACAGAGGAUUGAGCAUCA"}, "B2": {"name": "chr17:73195629:73195630:+_ENSMUSG00000039770_ENSMUST00000045174|mus_mus|motif|central (ssRNA)", "RNA": "GGGAGUUCUACAGUCCGACGAUCACGGGUACCACCGAUAUGGUCAAGAAAGAUUCUGCCCAUUUUGACAACUGAAGUUCGGAAAAGCGGCGUGCUGGGAAUCGGCGCUGCCAGCAGCUCUUCGCUCCUCAGCUGGGUCGAAGCCAACAGAGGAUUGAGCAUCA"}, "B3": {"name": "chr16:23111026:23111027:+_ENSMUSG00000022884_ENSMUST00000148085|mus_mus|FALSE|FALSE (ssRNA)", "RNA": "GGGAGUUCUACAGUCCGACGAUCGAUAUGCUACCCACAAAGAUCAUGAUGAUCUCCAAGCUGAGUAUUUAUUGCUGGUCUAAAUACUUAUUGCACCGAAUCUUAUGACAUAGGACACUGGACAUUAAGAAAGAGGUCCACCCCCAACAGAGGAUUGAGCAUCA"}, "B4": {"name": "chr4:1729744:1729745:+_ENSG00000013810_ENST00000313288|hu_hu|motif|central (ssRNA)", "RNA": "GGGAGUUCUACAGUCCGACGAUCGGACUCUGUCCUGCAAGGGUCUUCUAGGGUCUCAGAGGCGGGUGUCACUCUUCUGUCGGAGGAAUAGGAACUAAGGUUUUCCUCCACGGCUUGCUCAGGGCUGCCAGACACUUUUCCUGGCAACAGAGGAUUGAGCAUCA"}, "B5": {"name": "chr8:104442852:104442853:+_ENSG00000164934_ENST00000297579|hu_hu|FALSE|FALSE (ssRNA)", "RNA": "GGGAGUUCUACAGUCCGACGAUCUCUCAUAUCUAAGAUAACCUUUUUCAAAGGAGUAGCUUGCCUCAUAUCGUACAGUACUAUAUUCCUGUCAGAUGCACAACUUCCCAAGAGAAAUGUCUCAAUUGGGUUAAAUUUAACACUCAACAGAGGAUUGAGCAUCA"}, "B6": {"name": "chr11:51935959:51935960:+_ENSMUSG00000020349_ENSMUST00000020608|mus_mus|FALSE|FALSE (ssRNA)", "RNA": "GGGAGUUCUACAGUCCGACGAUCUUUUCUGACAGUAACAAAGAACAACGCGGGGCUGAGAUUUGAGAAGGGGAGAAACUGAGUGCAGACAAAUCAUACAAUUAAAUUAAUGGUAUCCCUGAAAGAAACACAACAAGAGGGGAGCAACAGAGGAUUGAGCAUCA"}, "B7": {"name": "chr2:204281756:204281757:+_ENSG00000138443_ENST00000261017|hu_mus|FALSE|FALSE (ssRNA)", "RNA": "GGGAGUUCUACAGUCCGACGAUCCUUUUCCAAGUAAGCCCUUGGCGCCCACGGUGGGUCCUCUUCAGCGUACGGAUCGCUGUACUCAACCACAGCUGCUUCCUCCUCUUCAUAAUCUUCUGGAGGAGGCGGUGGAGGGGGGGACAACAGAGGAUUGAGCAUCA"}, "B8": {"name": "chr19:16212804:16212805:+_ENSG00000167460_ENST00000300933|hu_mus|hu_hu_hu_mus_False|18_48 (ssRNA)", "RNA": "GGGAGUUCUACAGUCCGACGAUCAACAAUUCUGGAGUGAAGGAAAGAUGUAACAUGGAACAGCAUUAAAGCUCAGUCAGAAGGCACGUGGGUAAUUAUGAUCACCCCAGCAUUCUCCUACGUUGACCUUAAAGACAAUCUGUUCAACAGAGGAUUGAGCAUCA"}, "B9": {"name": "100203277_100203397_2944_CDS_ENSMUSG00000052727_ENSMUST00000064762|mouse|control|control (ssRNA)", "RNA": "GGGAGUUCUACAGUCCGACGAUCGGCACUCCCGCUCGCAUUGUCUUCCCCGUCCUCUUCCGGUUCCUCAGCCUCCUCAGUUUCCGCCUUCUCUUCGUAGUCUCCGGUCUCUGAGGAUUCUUCAAAACCAGCUCCUUCAUCUUCCAACAGAGGAUUGAGCAUCA"}, "B10": {"name": "chr4:4691572:4691573:-_ENSMUSG00000066324_ENSMUST00000084949|mus_mus|motif|central (ssRNA)", "RNA": "GGGAGUUCUACAGUCCGACGAUCAAAGAUUAGGGUUUUUCUACACAGUUUUAAGACAGAGCCAUUCUGCAGGUAUAUCACGGAAAACAUCUUACUUGGACCUAAAAUGAAAACACUACUAAUGUUUCUACACAGCAGUAAUAUCAACAGAGGAUUGAGCAUCA"}, "B11": {"name": "chr14:62194323:62194324:+_ENSG00000100644_ENST00000337138|hu_hu|FALSE|FALSE (ssRNA)", "RNA": "GGGAGUUCUACAGUCCGACGAUCUCUUUCAUCACAAUAAGAAAAUUUCAUAUCCAGGCUGUGUCGACUGAGGAAAGUCUUGCUAUCUAAAGGAAUUUCAAUAUUUGAUGGGUGAGGAAUGGGUUCACAAAUCAGCACCAAGCACAACAGAGGAUUGAGCAUCA"}, "B12": {"name": "chr2:91613138:91613139:+_ENSMUSG00000040506_ENSMUST00000045705|mus_hu|FALSE|FALSE (ssRNA)", "RNA": "GGGAGUUCUACAGUCCGACGAUCCUGCUGUCUCAGCACAGACAGCAAACUCACCGAAGAGGCACUGGUUCUGGGCGGGGGCAUGGAUUCCGCCUCAGAGCGGGAGUUCAGACUGAGUACUGUCCGGGUCCACUCAGAUCCUGUCAACAGAGGAUUGAGCAUCA"}, "B13": {"name": "chr1:6251023:6251024:+_ENSMUSG00000025907_ENSMUST00000027040|mus_mus|FALSE|FALSE (ssRNA)", "RNA": "GGGAGUUCUACAGUCCGACGAUCUUCCGCAACUAAGCUUGAAGAAUCUUCUCUGGCUGACUCAAAGGCAGGAGUUUUGGCUAUUUGAUUCUCAAGAUGUUUAACUUUUUCUAAUAACUCUUUCUCAACAAGUUCUCUCUCCACCAACAGAGGAUUGAGCAUCA"}, "B14": {"name": "chr7:35674789:35674790:-_ENSG00000122557_ENST00000396081|hu_hu|motif|central (ssRNA)", "RNA": "GGGAGUUCUACAGUCCGACGAUCUCCAGCUUGGUGUAAAUAAACCAGUAGCAUGGCUCCCAUUACCAUGAUAAACCGACGGAAAGAAGAAUAGAAGUAUACAAUGCUAAGGAGAAUCGCAGCUCGUGAGAACGUGUACAUCCACAACAGAGGAUUGAGCAUCA"}, "B15": {"name": "chr1:39494564:39494565:+_ENSG00000168653_ENST00000372967|hu_hu|hu_hu_hu_mus_True|18_108 (ssRNA)", "RNA": "GGGAGUUCUACAGUCCGACGAUCAUGUGCACGUCUCAUCGUUUUGUACCGAAGCAAGCACUCUUCGAAGUCAUCGAACUCUAUCUUGCACUCCUUUUUCGCCCGGGUCCCACCGAUUCCAUGUGCACACUCUAUCCACUCUUUCAACAGAGGAUUGAGCAUCA"}, "B16": {"name": "chr17:56552419:56552420:-_ENSMUSG00000013236_ENSMUST00000086828|mus_mus|mus_mus_mus_hu_False|68_108 (ssRNA)", "RNA": "GGGAGUUCUACAGUCCGACGAUCAAAGUUUUUUUCUUUUAAAAAAAAUGAAAUGUCACGGGAUACAAAAAAAUAUAGAGUUUUAAAAGAAAGCUGGAUUCUGGUCCCAGCCCAGUGUCCCCAGGCUGCAGAGCGGGGAGGAGCCAACAGAGGAUUGAGCAUCA"}, "B17": {"name": "chr2:101883234:101883235:+_ENSG00000158435_ENST00000289382|hu_mus|motif|central (ssRNA)", "RNA": "GGGAGUUCUACAGUCCGACGAUCGAAAUACUCCGUGAUCUGGCUUGACUGCAUCAGUUUCAGCAGCAUUUCUAUAGCGACGGAAGGGUUGUUCUCCACUAGAUCUGGAAGUUUCGCUGGAGUAAGGCCAAUGUGAUAAACAAGCAACAGAGGAUUGAGCAUCA"}, "B18": {"name": "chr7:65705844:65705845:+_ENSG00000169902_ENST00000304842|hu_mus|hu_hu_hu_mus_False|58_88 (ssRNA)", "RNA": "GGGAGUUCUACAGUCCGACGAUCAAACGGAUCUUUGUUACAUAAAUAAGGGGCUGGCUCCCCAUGUUUAACAAUGAUUUCUAGUAAGAAGGCUUGCAUGGCAGAAUCUAGCACUUCAUCUGUGACACCCGCCUCAUCCAAGCGCAACAGAGGAUUGAGCAUCA"}, "B19": {"name": "chr7:54825262:54825263:-_ENSG00000132432_ENST00000352861|hu_hu|hu_hu_hu_mus_False|28_68 (ssRNA)", "RNA": "GGGAGUUCUACAGUCCGACGAUCCUGCCGGCUGGGCUCCACAAACUGCAUUACCUGAUCCAUGUUUUACCCAACCGGGAUUGAGAGCGUAGAGACACGUAGCUCAGGGAGCUUGCUAGCCCAACGGAACCGGAAGCUGGCAACCAACAGAGGAUUGAGCAUCA"}, "B20": {"name": "90366439_90367966_15320_CDS_ENSG00000112159_ENST00000369393|human|control|control (ssRNA)", "RNA": "GGGAGUUCUACAGUCCGACGAUCCUUCUGGGAGGCCAACUGGGCAAUGAAAUUCGAUUCAUGGCCUUCUGCCUGGUUUGCAUCUGCAGCUCCACUUCCGUGUUCCUCUUUCCCCUGCUCCUUCUCAGGUGCGGCCCCAGCCAGCAACAGAGGAUUGAGCAUCA"}, "B21": {"name": "chr17:34945718:34945719:+_ENSG00000005955_ENST00000304718|hu_mus|FALSE|FALSE (ssRNA)", "RNA": "GGGAGUUCUACAGUCCGACGAUCAUUUAAGCGGCAGUAUUUAUUAAAUUUCUCCUUCAGAUGCUGUCGGUAUUGUUCUCUAUUGCUGUAGAAAGACUGGUUAUUAGCCAUAAAUGACUGUAUUUCAUCUUGUGAGAUAAAGAUCAACAGAGGAUUGAGCAUCA"}, "B22": {"name": "chr13:24895032:24895033:+_ENSMUSG00000019132_ENSMUST00000019276|mus_mus|FALSE|FALSE (ssRNA)", "RNA": "GGGAGUUCUACAGUCCGACGAUCAUAUUAGCAGACUGUCAUACCACAGGGUCAAGAAACAAAAGUUGCUGUCCAGUCAUGUUUGGACAAUAAUGUUUGGGGGUUAGAUGGGGAAGGUGAAGGGGAAGGAAAGAAAGAGGAGAACAACAGAGGAUUGAGCAUCA"}}, "note": "The other results are listed elsewhere or left out."}
{"target": "T1, UNK ZnF1-3 (human, UniProt Q9C0B0 31-174)", "T1 sequence": "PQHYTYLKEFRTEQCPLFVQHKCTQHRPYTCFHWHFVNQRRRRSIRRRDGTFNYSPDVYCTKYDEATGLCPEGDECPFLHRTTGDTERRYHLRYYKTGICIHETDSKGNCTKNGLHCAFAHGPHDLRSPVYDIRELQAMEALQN", "test": "nsRBNS (natural sequence RNA bind-n-seq); RBNS binding buffer (assumed for nsRBNS): 25 mM Tris pH 7.5, 150 mM KCl, 3 mM MgCl2, 0.01% Triton X-100, 500 ug/ml BSA, 20 U/ml SUPERase-In, 4 C; UNK is unkempt and MSI1 is Musashi-1; names of the RNAs are library labels; protein concentration not given here; high values mean tight binding", "units": {"binding signal": "enrichment R"}}
{"binder": "B1", "binding signal": 1.24}
{"binder": "B2", "binding signal": 0.718}
{"binder": "B3", "binding signal": 1.05}
{"binder": "B4", "binding signal": 0.915}
{"binder": "B5", "binding signal": 0.732}
{"binder": "B6", "binding signal": 2.48}
{"binder": "B7", "binding signal": 1.1}
{"binder": "B8", "binding signal": 1.02}
{"binder": "B9", "binding signal": 0.577}
{"binder": "B10", "binding signal": 1.01}
{"binder": "B11", "binding signal": 1.87}
{"binder": "B12", "binding signal": 0.81}
{"binder": "B13", "binding signal": 1.19}
{"binder": "B14", "binding signal": 1.44}
{"binder": "B15", "binding signal": 0.424}
{"binder": "B16", "binding signal": 2.2}
{"binder": "B17", "binding signal": 1.21}
{"binder": "B18", "binding signal": 0.895}
{"binder": "B19", "binding signal": 0.61}
{"binder": "B20", "binding signal": 0.685}
{"binder": "B21", "binding signal": 0.55}
{"binder": "B22", "binding signal": 2.31}
